Hit rate of the full screen: of about 310,000 compounds, about 14,000 (4.5%) showed an effect of 50% or more. Effects have a minus sign here. The list shows a part of the results.
Molecular target: human ether-à-go-go-related gene (hERG) potassium channel (human, UniProt Q12809)
Test: primary screen, population patch clamp on CHO cells stably expressing hERG
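Further: peak tail current of the secondary pulse compared with the same well before compound.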

human ether-à-go-go-related gene (hERG) potassium channel, sequence (Q12809 whole entry, looked up): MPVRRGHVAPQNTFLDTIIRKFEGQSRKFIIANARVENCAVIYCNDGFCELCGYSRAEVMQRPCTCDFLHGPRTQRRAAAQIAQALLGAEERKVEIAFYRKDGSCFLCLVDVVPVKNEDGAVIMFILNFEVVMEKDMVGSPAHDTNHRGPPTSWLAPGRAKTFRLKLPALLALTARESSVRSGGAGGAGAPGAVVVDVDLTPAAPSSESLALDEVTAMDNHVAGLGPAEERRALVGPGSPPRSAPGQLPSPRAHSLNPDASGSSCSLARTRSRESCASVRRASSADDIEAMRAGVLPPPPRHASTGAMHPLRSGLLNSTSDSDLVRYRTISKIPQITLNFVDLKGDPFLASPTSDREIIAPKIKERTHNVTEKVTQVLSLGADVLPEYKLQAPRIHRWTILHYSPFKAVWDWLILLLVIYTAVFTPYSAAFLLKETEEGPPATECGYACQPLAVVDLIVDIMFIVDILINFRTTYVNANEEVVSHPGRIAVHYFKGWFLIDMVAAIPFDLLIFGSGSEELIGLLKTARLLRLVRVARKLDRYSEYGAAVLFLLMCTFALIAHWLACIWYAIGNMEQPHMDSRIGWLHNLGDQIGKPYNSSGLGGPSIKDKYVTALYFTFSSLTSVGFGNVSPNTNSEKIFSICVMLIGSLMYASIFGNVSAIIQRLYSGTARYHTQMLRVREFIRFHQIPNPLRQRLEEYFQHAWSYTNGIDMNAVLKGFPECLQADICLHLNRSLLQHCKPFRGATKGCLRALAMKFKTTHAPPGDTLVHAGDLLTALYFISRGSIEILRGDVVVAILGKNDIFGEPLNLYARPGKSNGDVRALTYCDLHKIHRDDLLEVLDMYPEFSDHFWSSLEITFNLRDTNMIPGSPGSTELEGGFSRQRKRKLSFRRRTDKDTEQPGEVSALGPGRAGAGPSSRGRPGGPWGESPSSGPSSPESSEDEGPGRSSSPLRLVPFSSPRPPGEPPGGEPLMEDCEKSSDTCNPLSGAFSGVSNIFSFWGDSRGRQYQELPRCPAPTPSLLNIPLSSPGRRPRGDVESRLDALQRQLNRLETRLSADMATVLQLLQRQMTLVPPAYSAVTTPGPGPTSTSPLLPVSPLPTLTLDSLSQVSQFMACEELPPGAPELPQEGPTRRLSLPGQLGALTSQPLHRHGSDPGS

Row | Structure (SMILES) | hERG current change (%, negative = inhibition) at 10uM [%]
1 | Cc1ccc(-c2nc3cnccn3c2Nc2ccc3c(c2)OCCO3)o1 | -23.8
2 | COc1ccc2nnc(-c3ccccc3)n2n1 | -20.4
3 | CC(=O)Nc1ccc(/C=N/N2CCCCC2)cc1 | 16.5
4 | CC(c1ccccc1)C1NC(C(=O)O)CS1 (stereo not drawn) | -17.3
5 | NCCCCCc1nnc(SCC(=O)c2ccc(Cl)cc2)o1 | -14.5
6 | O=C(NCc1cccnc1)c1ccc(COc2ccccc2Cl)cc1 | 4.47
7 | Cc1ccc2nc(SCC(=O)Nc3ccc4c(c3)OCO4)nc(=O)n2c1 | 16
8 | Cc1ccc(C)n1-c1ccc(C(=O)Nc2ccccc2F)cc1 | -6.46
9 | CC(=O)c1cccc(N(C(=O)c2ccco2)C(C(=O)NC2CCCCC2)c2ccc(C)o2)c1 (stereo not drawn) | -21.6
10 | COC(=O)C1=C[C@@H](C(=O)OC)[C@@H]2C3=C(C(=O)C2(C)C)[C@H](C)n2c(=O)n(-c4ccccc4)c(=O)n2[C@@H]3C1 | 8.48
11 | Cc1ccc(CNc2nc(N)c([N+](=O)[O-])c(NCCO)n2)cc1 | -9.64
12 | CC1CN(CCOCCOc2ccccc2-c2ccccc2)CC(C)O1.O=C(O)C(=O)O (stereo not drawn) | -13.5
13 | O=Cc1ccc(OC(=O)c2cccnc2)cc1 | 9.31
14 | CCOc1ccc(S(=O)(=O)N/N=C(\C)c2ccc(Cl)c(Cl)c2Cl)cc1 | 21.2
15 | Cc1ccc(-c2nc(S(=O)(=O)c3ccccc3)c(SCC(=O)NCC3CCCO3)o2)cc1 (stereo not drawn) | 16.9
16 | COc1ccc(/C=N/NC(=O)c2cc(-c3ccccc3)nc3ccccc23)c(OC)c1 | 10.1
17 | Cc1cc(C)nc(NC2=NCC(=O)N2c2ccccc2)n1 | 8.37
18 | Cc1nc2sc(C(c3ccccc3)N3CC(C)OC(C)C3)c(O)n2n1 (stereo not drawn) | 4.05
19 | COc1ccc(C(=O)Oc2ccc(/C=N/Nc3ccc(Cl)c(C(=O)O)c3)cc2OC)cc1 | 6.85
20 | Cc1ccccc1NC(=O)c1nn(C)c(C(=O)Nc2ccccc2C)c1[N+](=O)[O-] | 0.0696
21 | COc1ccc(C2=NOC(C(=O)Nc3ccc4c(c3)OCCO4)C2)cc1OC (stereo not drawn) | 8.21
22 | N#C/C(=C\c1cc2ccccc2nc1N1CCCCC1)C(N)=O | -8.65
23 | O=C(CCCN1C(=O)/C(=C/c2ccccc2Cl)SC1=S)NNC(=O)c1ccccc1Cl | 29.8

Row | Structure (SMILES) | hERG current change (%, negative = inhibition) at 10uM [%]
24 | Cc1ccc(CN2CC(C(=O)NNC(=O)Cn3ccc(C(F)(F)F)n3)CC2=O)cc1 (stereo not drawn) | -1.57
25 | Cc1noc(C)c1CSc1nnc(-c2ccccc2)n1Cc1ccco1 | -21.9
26 | COc1ccc(/C=C/C(=O)OCC(=O)NCCC2=CCCCC2)cc1S(=O)(=O)N1CCOCC1 | -10.7
27 | CCc1onc(C)c1C(=O)Nc1ccc2c(c1)OCO2 | 20.1
28 | O=C(c1cn(-c2ccccc2)nc1-c1cccs1)N1CCN(c2ccccc2)CC1 | 6.1
29 | O=[N+]([O-])c1cccnc1Sc1ccc(Br)cc1 | 1.62
30 | Cc1ccc(S(=O)(=O)N2CCC(C(=O)NCCc3ccccn3)CC2)cc1 | -1.52
31 | CN(CC(=O)Nc1cccc(F)c1)C(=O)c1ccc(COc2ccccc2)o1 | 17.9
32 | O=C(Nc1cccc2ccccc12)N1N=CCC1c1ccccc1 (stereo not drawn) | 15.9
33 | COc1ccc2c(c1)C1CC(C)(NC(=O)C1C(=O)c1ccccc1)O2 (stereo not drawn) | -30.3
34 | S=c1[nH]nc(C2CC2c2ccc(Cl)cc2)n1-c1ccc(Cl)cc1 (stereo not drawn) | 28.8
35 | Nn1c(SC/C=C/c2ccccc2)nnc1-c1cccnc1 | 23.4
36 | C#CC(C)(C)NC(=O)c1ccccc1OC | 1.69
37 | c1cc2c(cc1C1=NNC(=NC3CC3)SC1)OCCO2 | 16.8
38 | CCCNC(=O)N1CCC(c2nc3ccccc3s2)CC1 | -16.8
39 | CC(=O)Nc1ccc(NC(=O)C(C)Sc2nnc(C3CC3)n2-c2ccccc2)cc1 (stereo not drawn) | 8.37
40 | O=C(NN=C1CCCCCCCCCCC1)c1ccccc1F | 6.38
41 | O=C(NCc1ccccc1)c1ccc2nccnc2c1 | 1.37
42 | COC(=O)c1ccccc1NS(=O)(=O)c1ccc(F)cc1 | -17.4
43 | COCc1cc(C)nc(SCC(=O)Oc2ccc(Cl)cc2)c1C#N | 4.5
44 | CN(C(=O)CSc1ncnc2ccccc12)C1CCS(=O)(=O)C1 (stereo not drawn) | -3.37
45 | COc1ccc(CC(=O)N/N=C(/C)CC(=O)N(C)c2ccccc2)cc1 | 9.63

Reference: publication PMC4336329 (PLoS ONE, 2015)
